Out of some 330,000 compounds screened, about 7,700 (2.3%) were called active. Roughly 26% stayed inconclusive and do not appear here. Calls follow the shape of the dose curve; as a rule, active = well fitted inhibition curve with a large enough effect; inconclusive = small, poorly fitted or top-dose-only effect, or effect the other way; inactive = flat fitted curve, though single readings scatter. Only a part is listed here, and it is no random draw.
% is scaled to controls: 0 for no effect and ±100 for the full control effect; potency is read from the fitted curve at half-maximal effect.

The nature of the assay: qHTS screen for small molecules that inhibit ELG1-dependent DNA repair in human embryonic kidney (HEK293T) cells expressing luciferase-tagged ELG1. Also: nearly all actives have a fitted effect of over 55% in size. The settings on record: HEK293T ELG1-luciferase reporter, luminescence, 16 h, DNA damage induced by 5-fluorouridine; series mostly up to 46.1 µM; activity change, negative = inhibition: at the top concentration. From the text: NIH Molecular Libraries Probe Production Network [MLPCN] NIH Chemical Genomics Center [NCGC] MLPCN Grant: 1 R03 MH092164-01 Assay Provider: Kyungjae Myung, NHGRI, NIH Keywords: MLPCN, qHTS, NCGC, genotoxicity, cancer Assay Overview: Cancer cells divide rapidly compared to normal cells in the body. During cell division, cancer cells need to duplicate their genome by DNA replication. The failure of genome duplication leads to cancer cells' death. Therefore, inhibitors of DNA replication could specifically kill cancer cells. Based on this concept, many chemotherapeutic agents were developed and have been used to treat cancer patients. However, there are a limited number of agents available in the clinical setting, and some of those that do exist have low efficacy and severe side effects. Therefore, if we can find the compounds that effectively block DNA replication either by directly damaging DNA or by inhibiting other cellular mechanisms, the options for cancer treatment will be broadened. With this in mind, we developed a quantitative high-throughput ELG1-luciferase reporter gene assay. Small molecules that specifically block ELG1 function in response to DNA damage can be identified by monitoring the suppression of luciferase activity. Since ELG1 defines a pathway for repairing DNA damage, agents blocking ELG1 function can be used to sensitize cancer cells to chemotherapeutic agents whose mechanism of action involves the induction of DNA damage.
Assay Protocol Summary: For genotoxicity screening, 2,000 cells in 4 uL/well were dispensed into white, solid-bottom 1536-well plates using a solenoid-based dispenser. Following transfer of 1 uL 5-Fluorouridine and 23 nL compound or DMSO vehicle by a pin tool, the plates were incubated 16 hr at 37 °C and 5% CO2. 5 ul ONE-Glo (Promega) was then added to each plate and following a 30 min incubation at room temperature, luciferase activity was quantified on a ViewLux CCD-based plate reader.
As to `NC(=O)C1=C[C@@H](c2ccc(Br)cc2)C[C@@H](OCc2ccc(CO)cc2)O1`, the “activity change, negative = inhibition” value was inactive: -0.328%.
Turning to `CCOC(=O)c1sc2nc(CC(=O)OC)nc(NCc3ccc(Cl)cc3)c2c1C`, the Potency is active: 5.8 µM.
As to `COc1ccccc1N1CCN(/N=C/C=C\c2ccccc2[N+](=O)[O-])CC1`, the “activity change, negative = inhibition” value was inactive: -7.15%.
Regarding `C[C@H](CO)N1C[C@H](C)[C@@H](CN(C)C(=O)Nc2ccc3c(c2)OCO3)Oc2c(NC(=O)C3CC3)cccc2C1=O`, the “activity change, negative = inhibition” value was inactive: -0.0662%.
In the case of `C=CC[C@@H](CC(=O)N(CCO)Cc1ccccc1)C(=O)N[C@@H](C)COC(=O)[C@@H](CC=C)CC(=O)OC(C)(C)C`, the “activity change, negative = inhibition” value was inactive: -2.79%.
As for `O=C(CCCNC(=O)/C(=C\c1ccccc1F)NC(=O)c1ccccc1)OCc1ccccc1`, the “activity change, negative = inhibition” value was inactive: -7.6%.
As for `O=C1/C(=N\S(=O)(=O)c2cccs2)C([n+]2cccc(Cc3ccccc3)c2)=C([O-])c2ccccc21`, the Potency is active: 2.31 µM.
Take `CC(C)(C)OC(=O)C[C@H]1C/C=C\C[C@H](CC(=O)NCCO)C(=O)NCCOC1=O`: the “activity change, negative = inhibition” value is inactive: 27.2%.
As to `CCOC(=O)[C@@H]1[C@H]2COc3cc(OC)ccc3[C@H]2N2C(=O)N(c3ccc(F)cc3)C(=O)[C@@]12C`, the “activity change, negative = inhibition” value was inactive: 27.7%.
`COc1cc(/C=C2/SC(=S)N(CC(=O)NC(C)(C)C)C2=O)cc(OC)c1OC`: the “activity change, negative = inhibition” value was inactive: -17.5%.
Still for that read-out and setting: the result for `COc1ccc2cc3[n+](cc2c1OC)CCc1cc2c(cc1-3)OCO2` reads inactive: 1.63%; that for `CC(C)(C)NCC(O)COc1cccc2c1CC(O)C(O)C2` (centres undefined), inactive: 18.7%.
Regarding `COc1ccc(-c2csc(NC(=O)Cc3ccccc3F)n2)cc1OC`, the Potency is active: 16.4 µM.
Take `CCO[C@@H]1OC(C(=O)N2CCN(Cc3ccc4c(c3)OCO4)CC2)=C[C@H](c2ccc3c(c2)OCO3)[C@H]1CCCO`: the “activity change, negative = inhibition” value is inactive: -16.7%.
As to `C[C@@H](NC(=O)OC(C)(C)C)C(=O)NCC1CCC(C(=O)N[C@@H](Cc2ccccc2)C(=O)O)CC1` (some centres undefined), the “activity change, negative = inhibition” value is inactive: 18.5%.
Same read-out and setting: the figure for `C[C@H]1CC[C@@]2(O[C@@H](CCO)C[C@@H](O)[C@@H]2O)O1` is inactive: 9.05%; for `CC(=O)C[C@H](O)CC(=O)[C@@H]1OC(=O)[C@@H](C)C/C=C\Cc2ccccc21` it is inactive: 8.08%.
As to `CC(=O)O[C@]1(C(C)=O)CC[C@H]2[C@@H]3C=C(C)C4=CC(=O)CC[C@]4(C)[C@H]3CC[C@@]21C`, the “activity change, negative = inhibition” value is inactive: -6.03%.
Take `CC(C)[C@H](NC(=O)N1CCn2c1nc1ccccc12)C(=O)N[C@H](C(=O)O)c1ccccc1`: the “activity change, negative = inhibition” value is inactive: 0.961%.
On the same count and under the same terms, the figure for `Cc1ccsc1/C=C1/SC(N2CC(C)OC(C)C2)=NC1=O` (centres undefined) is inactive: -28.5%; for `CCOC(=O)[C@H]1[C@H]2COc3ccc(Br)cc3[C@@H]2N2C(=O)N(c3ccc(F)cc3)C(=O)[C@@]12C` it is inactive: -7.99%.
In the case of `O=C(c1cc(C(=O)NCCc2ccccc2)c(=O)n(CCc2ccccc2)c1)c1cc(Cl)ccc1O`, the Potency was active: 23.1 µM.
As to `CCOC(=O)[C@H]1[C@H]2COc3cc(OC)ccc3[C@@H]2N2C(=O)N(c3ccc(Br)cc3)C(=O)[C@@]12C`, the “activity change, negative = inhibition” value is inactive: -6.4%.
In the case of `O=C(NCC1CCN(c2ccc(S(=O)(=O)N3CCOCC3)cc2)CC1)Nc1ccccc1`, the Potency is active: 14.6 µM.
On to `NC1=NC(=O)/C(=C\c2ccsc2)S1`, for which the “activity change, negative = inhibition” value was inactive: -1.7%.
`CC(C)(C)OC(=O)C[C@H]1C/C=C\C[C@H](CC(=O)N(CCO)Cc2ccccc2)C(=O)N[C@@H](Cc2ccccc2)COC1=O`: the “activity change, negative = inhibition” value is inactive: -3.14%.
For `OCC[C@H]1C[C@H](O)[C@@H](O)[C@@]2(CCc3ccccc3CO2)O1`, the “activity change, negative = inhibition” value was inactive: 10.4%.
Same read-out and setting: the result for `CCOC(=O)[C@@H]1[C@H]2COc3ccc(Br)cc3[C@H]2N2C(=O)N(c3ccc(F)cc3)C(=O)[C@@]12C` reads inactive: 0%; that for `NC(=O)C1=C[C@@H](c2ccccc2)C[C@@H](OCc2ccc(CO)cc2)O1`, inactive: 2.08%; that for `C=CC[C@H](CC(=O)NCCO)C(=O)N[C@@H](COC(=O)[C@H](CC=C)CC(=O)OC(C)(C)C)Cc1ccccc1`, inactive: 5.28%.
With `C[C@@]12CCC[C@H](O1)[C@@H]([C@H](O)c1ccccc1)O2`, the “activity change, negative = inhibition” value was inactive: -1.05%.
Take `CC(C)[N+]1(C)[C@@H]2CC[C@H]1CC(OC(=O)C(CO)c1ccccc1)C2` (some centres undefined): the Potency result was “inactive”.
As for `O=C(NCc1nc2ccccc2[nH]1)C1=C[C@@H](c2ccccc2)C[C@@H](OCc2ccc(CO)cc2)O1`, the “activity change, negative = inhibition” value was inactive: -20.5%.
On the same count and under the same terms, the result for `O=C(CSc1nc2ccccc2[nH]1)N/N=C/C=C\c1ccccc1[N+](=O)[O-]` reads inactive: -9.99%.
With `O=C(CNC(=O)c1ccccc1O)N/N=C/c1cc(Br)ccc1OC(=O)/C=C/c1ccco1`, the Potency is active: 4.11 µM.
Consider `CCO[C@H]1OC(C(N)=O)=C[C@@H](c2ccccc2)[C@@H]1CCCO`, for which the “activity change, negative = inhibition” value is inactive: -8.81%.
In the case of `CCOc1ccc(CN2CCN(Cc3c[nH]c4ccccc34)CC2)cc1`, the Potency was active: 13 µM.
With `Nc1ccn(C2CC(O)C(CO)O2)c(=O)n1` (centres undefined), the “activity change, negative = inhibition” value is inactive: 4.38%.
In the case of `CCN1/C(=C2/OC(=S)N(C)C2=O)Sc2ccccc21`, the “activity change, negative = inhibition” value was inactive: 19.6%.

Source of the values: PubChem BioAssay AID504467 (National Center for Advancing Translational Sciences (NCATS), 2011).
